The whole screen tested about 310,000 compounds, of which about 14,000 (4.5%) showed an effect of 50% or more. The effect is printed as a negative number. Some of the results follow.
molecular target: human ether-à-go-go-related gene (hERG) potassium channel (human, UniProt Q12809); experiment: primary screen, population patch clamp on CHO cells stably expressing hERG
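Note: peak tail current of the secondary pulse compared with the same well before compound.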

human ether-à-go-go-related gene (hERG) potassium channel, sequence (Q12809 whole entry, looked up): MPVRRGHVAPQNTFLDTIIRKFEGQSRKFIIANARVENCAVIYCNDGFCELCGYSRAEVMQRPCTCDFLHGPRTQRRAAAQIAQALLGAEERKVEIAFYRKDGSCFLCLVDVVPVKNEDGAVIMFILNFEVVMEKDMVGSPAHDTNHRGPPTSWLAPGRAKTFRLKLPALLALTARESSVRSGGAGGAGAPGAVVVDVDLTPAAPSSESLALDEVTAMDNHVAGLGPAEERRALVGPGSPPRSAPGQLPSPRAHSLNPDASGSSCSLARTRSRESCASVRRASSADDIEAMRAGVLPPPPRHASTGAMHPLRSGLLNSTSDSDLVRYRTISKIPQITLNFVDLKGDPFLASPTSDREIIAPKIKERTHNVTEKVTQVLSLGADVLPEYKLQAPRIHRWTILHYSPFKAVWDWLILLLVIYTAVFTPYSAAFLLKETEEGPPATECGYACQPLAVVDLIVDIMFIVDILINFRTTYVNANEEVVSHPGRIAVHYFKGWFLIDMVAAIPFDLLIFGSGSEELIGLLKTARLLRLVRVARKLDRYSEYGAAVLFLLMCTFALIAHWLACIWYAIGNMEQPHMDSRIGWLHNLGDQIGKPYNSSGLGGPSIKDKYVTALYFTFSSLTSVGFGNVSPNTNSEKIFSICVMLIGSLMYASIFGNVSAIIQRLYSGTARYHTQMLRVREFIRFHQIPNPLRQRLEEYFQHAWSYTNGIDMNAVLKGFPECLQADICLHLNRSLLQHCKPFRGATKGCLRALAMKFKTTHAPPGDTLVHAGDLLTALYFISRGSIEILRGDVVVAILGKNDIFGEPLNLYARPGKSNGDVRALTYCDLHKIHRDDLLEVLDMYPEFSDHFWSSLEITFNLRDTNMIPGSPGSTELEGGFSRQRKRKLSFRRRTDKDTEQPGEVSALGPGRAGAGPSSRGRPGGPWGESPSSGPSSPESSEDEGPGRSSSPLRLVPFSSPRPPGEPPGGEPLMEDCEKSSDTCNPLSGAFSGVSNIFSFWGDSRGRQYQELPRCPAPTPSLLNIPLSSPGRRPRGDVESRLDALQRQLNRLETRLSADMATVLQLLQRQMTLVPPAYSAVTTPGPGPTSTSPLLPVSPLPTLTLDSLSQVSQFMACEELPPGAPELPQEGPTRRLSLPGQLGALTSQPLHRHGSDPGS

Structure (SMILES) | hERG current change (%, negative = inhibition) at 10uM
CCOC(=O)Nc1ccc2c(c1)N(C(=O)CCN(CC)CC)c1ccccc1CC2 | -50.3%
CCOc1ccc(CNC(=O)CCCc2cn(C)c3ccccc23)cc1OC | 2.54%
Cc1ccc2c(c1)nnn2C1CCN(CC(=O)c2ccc(Cl)cc2)CC1 | -45.9%
CCn1c(=O)c2c(nc(SCC(=O)NC3CCCC3)n2C)n(C)c1=O | 7.68%
COc1ccc(NC(=O)CC2CCCC2)cc1OC | -1.29%
CN(C(=O)COC(=O)c1cc(-c2ccco2)nc2ccccc12)C1CCS(=O)(=O)C1 (centres unmarked) | -24%
Cc1cccc(NC(=O)CCC(=O)N/N=C/c2ccco2)c1 | 0.913%
CCn1cc(C(=O)O)c(=O)c2cc(F)c(N3CCN(C(=S)NC(=O)c4ccc(F)c(F)c4)CC3)cc21 | 41.6%
COC(=O)c1sccc1NC(=O)C1CC1 | 14.6%
FC(F)(F)c1cc(-c2ccco2)nc(NCc2cccs2)n1 | -1.51%
O=[N+]([O-])c1ccc(N2CCN(S(=O)(=O)c3ccccc3)CC2)cc1N1CCc2ccccc2C1 | 22.9%
CCCC(CCC)c1nc2ccncc2[nH]1.O=C(O)C(=O)O | 23.9%
Cc1ccccc1OCC(=O)N/N=C1\CC(=O)CC(C)(C)C1 | 5.61%
Cc1cc(C)c(/C=N/NC(=O)c2nnn(-c3nonc3N)c2COc2ccc(F)cc2)c(C)c1 | 2.94%
CCCCNC(=S)NNC(=O)c1cc(-c2cccnc2)nc2ccccc12 | -7.41%
CC(=O)c1c(C)[nH]c(C(=O)Nc2ccc(Cl)c(S(=O)(=O)N3CCOCC3)c2)c1C | -0.577%
O=C(COC(=O)COc1ccccc1)NCCC1=CCCCC1 | 14.9%
CC1CCCN(S(=O)(=O)c2ccc(C(=O)Nc3ccccc3-c3nc4ccccc4[nH]3)cc2)C1 (centres unmarked) | 0.964%
O=C(O)c1ccccc1NN=C1CCCCC1 | 12.7%
CNC(=S)Nc1ccc(Cc2ccncc2)cc1 | 6.78%
O=C(Nc1ncc(Cc2cccc(Cl)c2)s1)c1ccc([N+](=O)[O-])cc1 | 10.6%
CCOc1ccc(NC(=O)CCC(=O)NNC(=O)COc2ccc(C)cc2)cc1 | 16.1%
COc1ccccc1NS(=O)(=O)c1cc2c3c(c1)CC(=O)N3CCC2 | -22%

Structure (SMILES) | hERG current change (%, negative = inhibition) at 10uM
CCOc1ccc2nc(NC(=O)CN3C(=O)NC4(CCCC4)C3=O)sc2c1 | -11.8%
O=C(COc1ccc(Br)cc1)N1CCC(c2ccccc2)C1 (centres unmarked) | -45.2%
CC(=O)Nc1ccccc1OP1(=O)COc2ccccc2OC1 | 2.8%
O=c1oc2cc(O)ccc2c2oc3cc(O)ccc3c12 | 2.26%
O=C(N/N=C/C=C/c1ccc(Br)cc1)C(O)c1ccccc1 (centres unmarked) | 3.34%
Cc1c(C(=O)NC2CCCCC2)oc2c1C(=O)CC(C)(C)C2 | 8.79%
COc1ccc(C(=O)O/N=C(\N)c2cccc(C)c2)cc1OC | 16.3%
Nc1c2c(nn1-c1ccc(F)cc1)CSC2 | 5.37%
Cc1ccc(-c2nc3cc(N)ccc3o2)cc1Br | 14.6%
CCCCC(=O)Nc1nc2ccc(C(=O)OC)cc2s1 | 2.24%
Cc1ccc(Cl)cc1NC(=O)CCCN1C(=O)c2cccnc2C1=O | -3.19%
O=C(O)CNC(=S)N(Cc1ccccc1Cl)C1CCCCC1 | 10.5%
COc1cc(C(=O)OCC(C)=O)cc(NC(=O)c2ccco2)c1OC | 29.2%
Cc1cccc2sc(N(CCCN(C)C)C(=O)c3ccc(Cl)s3)nc12.Cl | -69.7%
Cc1cc(C(=O)N2CCCc3ccccc32)no1 | 1.44%
COc1ccc(C2N(c3ccc(C)cc3)CCN2c2ccc(C)cc2)cc1O | 20.9%
CC(C)(C)c1ccc(S(=O)(=O)Nc2cccnc2)cc1 | -6.96%
COc1cc(-c2nc3cnccc3n2C)cc(OC)c1OC | -26.9%
CCn1c(COc2ccc(=O)n(-c3ccccc3)n2)nnc1SCc1ccccc1 | -48.2%
Cc1nc(N2CCN(C(=O)c3cnccn3)CC2)c2c3c(sc2n1)CC(C(C)(C)C)CC3 (centres unmarked) | -10.4%
O=C(NC1CCCCC1)c1ccc([N+](=O)[O-])o1 | 14.7%
O=C(O)CSC(C(=O)Nc1ccc(C(F)(F)F)cc1)c1ccccc1 (centres unmarked) | -1.32%
CCCc1c(C(=O)N/N=C/c2ccc(C)s2)nnn1-c1nonc1N | 19.6%

Structure (SMILES) | hERG current change (%, negative = inhibition) at 10uM
O=C(NC(=S)N1CCOCC1)c1cn(-c2ccccc2)nc1-c1ccc(F)cc1 | 16.3%
CSc1ccc(C(=O)C2CCCN(C(=O)c3ccc4c(c3)no[n+]4[O-])C2)cc1 (centres unmarked) | -5.37%
O=c1[nH]c(N2CCc3ccccc3C2)nc2c1CCC2 | -0.23%
CCC(C(=O)OC(C)C(=O)Nc1ccc(Cl)cn1)c1ccccc1 (centres unmarked) | 0.842%
COc1ccc(NC2CCCN(C(=O)CCC3=NNC(=O)CC3)C2)cc1 (centres unmarked) | 15.7%
CCn1c(SCCC(=O)Nc2ccccc2)nnc1-c1ccc(OC)cc1 | 4.86%
CCCOc1ccc(/C(O)=C2\C(=O)C(=O)N(CCCOC)C23C(=O)N(C)c2ccccc23)cc1 (centres unmarked) | 20.7%
C=CCN1C(=O)S/C(=C/c2ccc(Sc3nc4ccccc4[nH]3)o2)C1=O | 3.61%
O=C(Nc1ccc(C(=O)c2ccccc2)cc1)c1ccccc1 | 9.86%
O=C(NCc1ccco1)c1sc2ccccc2c1Cl | -9.84%
Cc1nn(CCCC(=O)NCc2ccc(Cl)cc2)c(C)c1[N+](=O)[O-] | -41.9%
CC(C)(C)NCc1ccc(OCc2cccs2)cc1.Cl | 11.9%
O=[N+]([O-])c1ccc(N2CCCCC2)nc1 | -3.2%
O=C(NC(=S)NCc1ccccc1)c1cccs1 | 7.8%
CCOC(=O)c1cccc(C2=CC(=O)C[C@H](c3ccc(OC)c(OC)c3)C2)c1 | -26%
Cl.O=C(NCCCNC(=O)c1cncc(O)c1)c1cncc(O)c1 | 19%
Cc1cccc(C(=O)NN/C=C/C(=O)c2ccccc2)c1 | -4.94%
CN(CC(=O)Nc1ccc(S(N)(=O)=O)cc1)C1CCCCC1 | -1.84%
COCC(=O)Nc1ccc(S(=O)(=O)Nc2nccs2)cc1 | 6.17%
COc1ccc(NC(=O)CCNC(=O)c2ccco2)cc1S(=O)(=O)N(C)C | 14.1%
CC(C)NC(=O)Cc1ccc(Br)cc1 | 3.92%
COc1ccc(CN2CC[C@@H](N3CCOCC3)[C@H](O)C2)cc1F | -8.02%
Cc1[nH]c2ccccc2c1/C=N/NC(=O)Cc1cccs1 | 6.95%

Structure (SMILES) | hERG current change (%, negative = inhibition) at 10uM
CCNc1ccc(C(=O)OCC(=O)NCCN2C(=O)CSC2=O)cc1[N+](=O)[O-] | -23.4%
O=C(CCCCCNS(=O)(=O)c1ccc(Br)cc1)NCCN1CCOCC1 | -19.7%
COc1ccc(Cl)cc1NC(=O)COC(=O)CNC(=O)C1CCCCC1 | 9.87%
O=C1NC(c2cn(-c3ccccc3)nc2-c2cccs2)C(C(=O)c2cccnc2)C(O)(C(F)(F)F)N1 (centres unmarked) | 5.79%
Cc1ccccc1CS(=O)(=O)CCC(=O)N1CCN(c2ccc(N3CCOCC3)nn2)CC1 | -4.17%
Cc1ccc(S(=O)(=O)c2nnn3c2nc(N2CCOCC2)c2ccccc23)c(C)c1 | -31.3%
N#CSCC(=O)N1c2ccccc2CCc2ccccc21 | -24.3%
CCCC(c1nnnn1CCc1ccccc1)N1CCC(C(N)=O)CC1 (centres unmarked) | 1.35%
COc1ccc(-n2c(=S)[nH]c3cc(C(=O)NCCCN4CCCC4=O)ccc3c2=O)cc1 | 15.3%
O=C(c1ccc(N2CCOCC2)c([N+](=O)[O-])c1)N1CCN(Cc2ccccc2)CC1 | -66.9%
CN1/C(=C/C=C(C#N)C#N)C=Cc2ccccc21 | 11.5%
O=[N+]([O-])c1ccc(/C=N/NC2=NS(=O)(=O)c3ccccc32)cc1 | -7.49%
CCOC(=O)c1ccc(Oc2nc(N(C)C)nc(N3CCOCC3)n2)cc1 | -3.51%
O=C(Nc1ccc(Cl)cc1)c1cc(-c2cccs2)on1 | 24.6%
COc1ccc(S(=O)(=O)N(CC(=O)NC2CC2)c2ccc(C)cc2)cc1OC | 14.7%
CC(=O)Nc1cccc(-c2nc3ccccc3c(=O)o2)c1 | 9.11%
CCNS(=O)(=O)c1c(C)cc(C)c(N(C)S(=O)(=O)c2ccccc2)c1C | -33.8%
COc1ccc(NC(=O)CNc2cccc(C#N)c2)cc1Cl | -1.89%
COc1ccc(-c2nnn(CC(=O)N(Cc3ccc(F)cc3)C(C(=O)NC3CCCC3)c3ccc(F)cc3)n2)cc1 (centres unmarked) | 14.9%
Cc1ccc(Nc2cc(C)nc3nnnn23)cc1 | 0.981%
